Test results: PubChem BioAssay AID504466 (National Center for Advancing Translational Sciences (NCATS), 2011)
In all, about 330,000 compounds went through this assay and about 4,200 (1.3%) were called active. Inconclusive means that the source gave no clear call. Such entries were picked first, then a sample of the others. The call rests on the fitted dose curve; in most records, active means well fitted activation curve with a large enough effect; inconclusive means small, poorly fitted or top-dose-only effect; inactive means no such curve, though single readings can be large or run the other way. Where the call is inconclusive, the potency comes from a doubtful curve fit.

assay: qHTS screen for small molecules that induce genotoxicity in human embryonic kidney (HEK293T) cells expressing luciferase-tagged ELG1; settings: HEK293T ELG1-luciferase reporter, luminescence, 16 h; series mostly up to 46 µM; further: nearly all actives have a fitted effect of over 60% in size
How it was run: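 After overnight (16 hr) compound treatment at 37 °C, ELG1-luciferase HEK293T cells were lysed with ONE-Glo; luminescence quantified 30 min later at room temperature.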
Potency means the concentration at half of the fitted maximal effect; tags describe the fitted curve by direction and shape.

**Q.** Which Potency does the source give for `O=C(Nc1ccc(O)cc1)c1c(O)c2c([nH]c1=O)CCCC2` here?
**A.** The Potency was inconclusive: 2.31 µM [activator, full curve].

**Q.** With `O=C(NC(=S)Nc1ccc(CN2CCOCC2)cc1)c1cc2ccccc2o1` as the molecule, how does the Potency read?
**A.** The Potency was “inactive”.

**Q.** For `Cn1c(SCC(=O)Nc2ccc3c(c2)oc2ccccc23)nnc1-c1ccccc1`, which Potency is on record?
**A.** Its Potency is inconclusive: 20.6 µM [activator, partial curve, poor fit].

**Q.** Which Potency does the source give for `c1ccc(Nc2scc(-c3ccccc3)[n+]2Cc2ccco2)cc1` here?
**A.** The Potency was inconclusive: 10.3 µM [activator, partial curve, poor fit].

**Q.** With `O=C(c1cc2ccccc2oc1=O)N(Cc1ccccc1)C1CCS(=O)(=O)C1` (configuration not stated) as the molecule, how does the Potency read?
**A.** Its Potency is inconclusive: 25.9 µM [activator, partial curve, poor fit].

**Q.** With `COc1cccc(-c2nc(-c3ccncc3)no2)c1` as the molecule, how does the Potency read?
**A.** The Potency was inconclusive: 5.17 µM [activator, partial curve].

**Q.** Which Potency does the source give for `O=C(/C=C/c1ccccc1)NCCSCc1ccccc1Cl` here?
**A.** The Potency was inconclusive: 20.6 µM [activator, single point].

**Q.** With `O=C(NCCCn1ccnc1)c1cc(-c2ccccc2)on1` as the molecule, how does the Potency read?
**A.** Its Potency is active: 14.6 µM.

**Q.** With `c1ccc2nc(-c3nc4ccccc4o3)ccc2c1` as the molecule, how does the Potency read?
**A.** Its Potency is inconclusive: 0.517 µM [activator, partial curve].

**Q.** For `O=C(N=C1N=C2C=CC(Br)=CN2Cc2ccccc21)c1ccc([N+](=O)[O-])cc1[N+](=O)[O-]`, which Potency is on record?
**A.** The Potency was inconclusive: 9.2 µM [activator, partial curve, poor fit].

**Q.** Which Potency does the source give for `CC(=O)C1=C(C)NC(C)=C(C(C)=O)C1c1cn(-c2ccccc2)nc1-c1cccs1` here?
**A.** Its Potency is inconclusive: 20.6 µM [activator, partial curve, poor fit].

**Q.** For `O=C(Nc1cc2c(cc1Br)OCCO2)c1ccco1`, which Potency is on record?
**A.** Its Potency is inconclusive: 20.6 µM [activator, partial curve, poor fit].

**Q.** Which Potency does the source give for `CC1CN(S(=O)(=O)c2cccc(C(=O)Nc3ccc(S(=O)(=O)NC4=NCCCCC4)cc3)c2)CC(C)O1` (configuration not stated) here?
**A.** The Potency was inconclusive: 20.6 µM [activator, partial curve].

**Q.** With `CCOc1cc(/C=N/Nc2ncnc(Cl)c2N)ccc1O` as the molecule, how does the Potency read?
**A.** The Potency was inconclusive: 16.4 µM [activator, partial curve, poor fit].

**Q.** With `O=C(Nc1ccc(Br)cc1)c1cc2ccccn2n1` as the molecule, how does the Potency read?
**A.** Its Potency is inconclusive: 1.64 µM [activator, partial curve].

**Q.** Which Potency does the source give for `COc1ccc(N2CCN(C(=O)Cn3nnc(-c4ccc(OC)c(OC)c4)n3)CC2)cc1` here?
**A.** Its Potency is inconclusive: 32.6 µM [activator, partial curve, poor fit].

**Q.** With `CCOC(=O)c1ccc(NC(=O)C(=O)NCc2ccco2)cc1` as the molecule, how does the Potency read?
**A.** Its Potency is inconclusive: 20.6 µM [activator, single point].
